The values below come from the RNAGym collection of RNA variant scans (doi:10.7554/elife.90254).

The source gives no read counts; variants with many changes may rest on few reads.

The chains are these.
B1: OR4K15 (parent)
chain: GUUAACGGUCAUAGGCCAUGGAAACUAGGAGCACCAUUUCGCUGCCAGUGAAGAAAUGAACAAAGAAAAUCUGGGCCAGGCAGGCAUCAAAAGAAAUAGUCUUGCGCUCAACCAGAAAGUCUGUAAUCAUUUUAAGGGUA

The variants in this data set derive from B1. Kind of data set: self-cleavage, relative activity (ratio to wild type); higher = more cleavage; in vitro, sequencing; the parent is a self-cleaving ribozyme.
GUUAACGGUCAUAGGCCAUGGGAACUAGGAGCACCAUUCCGCUGCCAGUGAAGAAAUGGACAAAGAAAAUCUGGGCCAGGCGGGCAUCAAAAGAAAUAGUCUUGCGCUCAACCAGAAAGUCUGUAAUCAUCUUAAGGGUA [A22G U39C A59G A82G U131C]: the self-cleavage worked out at 0.31.
Consider GUUAACGGUCAUAGGCCAUGGGAACUAGGAGCACCAUUCCGCUGCCAGUGAAGAGAUGAACAAAGAAAAUCUGGGCCAGGCAGGCAUCAAAAGGAAUAGUCUUGCGCUCAACCAGAAAGUAUGUAAUCAUUUUAAGGGUA [A22G U39C A55G A94G C121A], for which the self-cleavage was found to be 1.57.
In the case of GUUAACGGUCAUAGGCCAUGGGAACUAGGAGCACCAUUUCGCUGCCAGUGAAGAAAUGAACAAAGAAAACCUGGGCCAGGCAGGCACCAAAAGAAAUAGUCUUGCGCUCAACCAGAAAGUCUGUAAUCACUUUAAGGGUA [A22G U70C U87C U130C] it was 0.04; in that of GUUAACGGUCAUAGGCCAUGGGAACUAGGAGCACCAUUCCGCUGCCAGUGAAGAAAUGAACAAAGAAAAUCUGGGCCAGGCAGGCAUCAAAAGAAAUAGUCUUGCGCUCAACCAGAAAGUCUGUAAACAUUUUAAGGGUA [A22G U39C U127A], 2.48; in that of GUUAACGGUCAUAGGCCAUGGGAACUAGGAGCACCAUUUCGCUGCCAGUGAAGAAAUGAACAAAGAAAAUCUGGGCCAGGCAGGCAUCAAAAGAAAUAGCCUUGCGCUCGACCAGAAAGUCUGUAAUCAUUUUAAGGAUA [A22G U100C A110G G138A], 0.25.
In the case of GUUAACGGUCAUAGGCCAUGGGAACUAGGAGCACCAUUUCGCUGCCAGUGAAGAAAUGAACAAAGAAAAACUGGGCCAGGCAGGCAUCAAAAGAAGUAGUCUUGCGCUCAACCAGAAAGUCUGUAAUCAUUUUAAGGGUA [A22G U70A A96G] it was 0.51; in that of GUUAACGGUCAUAGGCCAUGGGAACUAGGAGCACCAUCUCGCUGCCAGUGAAGAAAUGAACAAAGAAAAUCUGGGCCAGGCAGGCAUCAAAAGAAAUAGUCUUGCGCUCAACCAGAAAGCCUGUAAUCAUUUUAAGGGUA [A22G U38C U120C], 0.57; in that of GUUAACGGUCAUAGGCCAUGGGAACUAGGAGCACCAUUUCGCUGCCAGUGAAGAAACGAACAAAGAAAAUCUGGGCCAGGCAGGCAUCAAAAGGAAUAGUCUUGCGCUCAACCAGAAUGUCUGUAAUCAUUUUAAGGGUA [A22G U57C A94G A118U], 0.11.
For GUUAACGGUCAUAGGCCAUGGGAACUAGGAGCACCAUUUCGCUGCCAGUGAAGAAAUGAACAAAGAAAAUCUGGGCCAGGCAGGCAACAAAAGAAAUAGUCUUGCGCUCAACCAGAAAGUCUGUAAUCAUUUUAAGGGCA [A22G U87A U139C] the value was 1.59; for GUUAACGGUCAUAGGCCAUGGGAACUAGGAGCACCAUUUCGCAGCCAGUGAAGUAAUGAACAAAGAAAAUCUGGGCCAGGCAGGCAUCAAAAGAAAUAGUCUUGCGCUCAGCCAGAAAGUCUGUAAUCAUUUUAAGGGUA [A22G U43A A54U A111G], 0.05.
For the variant GUUAACGGUCAUAGGCCAUGGGAACUAGGAGCACCAUUCCGCUGCCAGUGAAGAAAUGAACAAAGAGAAUCUGGGCCAGGCAGGCAUCAAAAGAAAUAGUCUUGCGCUCAACCAGAAAGUCUGUAAUCACUUUAAGGGUA [A22G U39C A67G U130C], the self-cleavage worked out at 0.34.
For GUUAACGGUCAUAGGCCAUGGGAACUAGGAGCACCAUUUCGCUGCCAGAGAAGAAAUGAACAAAGAAAAUCUGGGCCAGGCAGGCAUCAAAAGAAAUGGUCUUGCGCUCAACCAGAAAGUCUGUAAUCAUUUUAAGGGUA [A22G U49A A98G] the value was 0.28; for GUUAACGGUCAUAGGCCAUGGGAACUAGGAGCACCAUUUCGCUGCCAGUGAAGAAAUGAACAAAGAAAAUCUGGGCCAGGCAGGCAUCAAAAGAAAUAGUCUCGCGCUCAACCAGAAAGUCCGCAAUCAUUUUAAGGGUA [A22G U103C U122C U124C], 0.78.
In the case of GUUAACGGUCAUAGGCCAUGGGAACUAGGAGCACCAUUUCGCUGCCAGUGAAGAAACGAACGAAGAAAAUCUGGGCCAGGCAGGCAUCAAAAGAAGUAGUCUUGCGCUCAACCUGAAAGUCUGUAAUCAUUUUAAGGGUA [A22G U57C A62G A96G A114U] it was 0.1; in that of GUUAACGGUCAUAGGCCAUGGGAACUAGGAGCACCAUUCCGCUGCCAGUGAAGAAAUGAACAAAGAAAAUCUGGGCCAGGCAGGCAUCAAAAGAAAUAGUCUUGCGCCCAACCAGAAAGUCUGUAAUCAUUUUAAGGGUA [A22G U39C U108C], 0.04.
As for GUUAACGGUCAUAGGCCAUGGGAACUAGGAGCACCAUUCCGCUGCCAGUGAAGAAAUGAACAAAGAAAAUCUGGGCCAGGCAGGCAUCAAAAGAAAUGGUCUUGCGCUCAACCAGAAAGUCUGUAAUCAUUUUAAGGGUA [A22G U39C A98G], the self-cleavage worked out at 0.91.
In the case of GUUAACGGUCAUAGGCCAUGGGAACUAGGAGCACCAUUUCGCUGCCAGUGAAGAAAUGAACAAAGAAAAUCUGGGCCAGGCAGGCAGCAAUAGAAAUAGUCUUGCGCUCAACCAGAAAGUCUGUAAUCAUUUUAAGGGUA [A22G U87G A91U] it was 0.48; in that of GUUAACGGUCAUAGGCCAUGGGAACUAGGAGCACCAUUUCGCUGCCAGCGAAGAAAUGAACAAAGAAGAUCUGGGCCAGGCAGGCAUCAAAAGAAAUAGUCUAGCGCUCGACCAGAAAGUCUGUAAUCAUUUUAAGGGUA [A22G U49C A68G U103A A110G], 0.08; in that of GUUAACGGUCAUAGGCCAUGGGAACUAGGAGCACCAUUUCGCUGCCAGUGAAGAAACGAACAAAGAAAAUCUGGGCCAGGCAGGCAUCAAAAGAAAUAGUCUAGUGCUCGACCAGAAAGUCUGAAAUCAUUCUAAGGGUA [A22G U57C U103A C105U A110G U124A U132C], 0.
For GUUAACGGUCAUAGGCCAUGGGAACUAGGAGCACCAUCUCGCUGCCAGUGAAGAAAUGAACAAAGAAAAUCUGGGCCAGGCAGGCAUCAAAAGAAAUAGACUUGCGCUCAACCAGAAAGUCUGUAAUCAUUUUAAGGGUA [A22G U38C U100A] the value was 1.52; for GUUAACGGUCAUAGGCCAUGGGAACUAGGAGCACCAUUUCGCCGCCAGUGAAGAAAUGAGCAAAGAAAAUCUGGGCCAGGCAGGCAUCAAAAGAAAUAGUCUUGCGCUCAACCAGAAAGUCUGUAAUCAUUUUAAGGGUA [A22G U43C A60G], 0.55; for GUUAACGGUCAUAGGCCAUGGGAACUAGGAGCACCAUUACGCUGCCAGUGAAGAAAUGAACAAAGAAAAUCUGGGCCAGGCAGGCAUCAAAAGAAAUUGUCUUGCGCUCAACCAGAAAGUCUGUAAUCAUUUUAAGGGUA [A22G U39A A98U], 0.97.
Regarding GUUAACGGUCAUAGGCCAUGGGAACUAGGAGCACCAUUUCGCUGCCAGAGAAGAAAUGAACAAAGAAGAUCUGGGCCAGGCAGGCAUCAAAAGAAAUAGUCUUGCGCUCAACCAGAAAGUCUGUAAUCAUUUUAAGGGUA [A22G U49A A68G], the self-cleavage was 1.12.
For GUUAACGGUCAUAGGCCAUGGGAACUAGGAGCACCAUUUCGCUGCCAGUGAAGAAAUGAACAAAGAAAAUCUGGGCCAGGCAGGCAUCAAAAGAAAUAGCCUUGCGCUCAACCAGAAAGUCUGUAACCAUCUUAAGGGUA [A22G U100C U127C U131C], the self-cleavage came to 0.71.
In the case of GUUAACGGUCAUAGGCCAUGGGAACUAGGAGCACCAUUUCGCUGCCAGUGAAGAAAUGAACAAAGAAAAUCUGGGCCAGGCAGGCAUCAAAAGAAAUAGUCUUGCGCCCAACCAGAAAGUCUGUUAUCAUUUUAAGGGUA [A22G U108C A125U] it was 0.01.
For GUUAACGGUCAUAGGCCAUGGGAACUAGGAGCACCAUUUCGCUGCCAGUGAAGAAAUGAACAAAGAAAAUCUGGGCCAGGCAGGCAUCAAAAGAAAUAGUCUUGCGCCCAACCAGAAAGUCUGUAAUCAUUUUGAGGGUA [A22G U108C A134G] the value was 0.
In the case of GUUAACGGUCAUAGGCCAUGGGAACUAGGAGCACCAUUUCGCUGCCAGUGAAGAAAAGAACAAAGAAAAUCUGGGCCAGGCAGGCGUCAAAAGAAAUAGUCUUGCGCUCAACCAGAAAGUCUGUAAUCAUUUUAAGGGUA [A22G U57A A86G] it was 0.9.
Take GUUAACGGUCAUAGGCCAUGGGAACUAGGAGCACCAUUUCGCUGCCAGCGAAGGAAUGAACAAAGAUAAUCUGGGCCAGGCAGGCAUCAAAAGAAAUAGUCUUGCGCUCAACCAGAAAGUCUGUAAUCAUCUUAUGGGUA [A22G U49C A54G A67U U131C A135U]: the self-cleavage is 0.61.
For GUUAACGGUCAUAGGCCAUGGGAACUAGGAGCACCAUCUCGCUGCCAGCGAAGAAAUGAACAAAGAAAAUCUGGGCCAGGCAGGCAUCAAAAGAAAUAGUCUUGCGCUCAACCAGAAAGUCUGUAAUCAUUCUAAGGGUA [A22G U38C U49C U132C] the value was 1.75; for GUUAACGGUCAUAGGCCAUGGGAACUAGGAGCACCAUUCCGCUGCCAGUGAAGAAAUGAACAAAGCAAAUCUGGGCCAGGCAGGCAUCAAAAGAAAUAGUCUUGCGCUCAACCAGAAAGUCUGUAAUCAUUUUAAGGGUA [A22G U39C A66C], 1.25; for GUUAACGGUCAUAGGCCAUGGGAACUAGGAGCACCAUUCCGCUGCCAGUGAAGAAAUGAACAAAGAAAACCUGGGCCAGGCAGGCAUCAAAAGAAAUAGUCUUGCGCUCAACCAGAAAGUCUGUGAUCAUUUUAAGGGUA [A22G U39C U70C A125G], 0.42.
For the variant GUUAACGGUCAUAGGCCAUGGGAACUAGGAGCACCAUUUCGCUGCCAGUGAAGAAAUGAACAAAGAAAAUCUGGGCCAGGCAGGCAUCAAAAGAAAUAGUCUUGCGCUCAACCAGAAAGCCUGUAAUCAUUCUAAGGGUA [A22G U120C U132C], the self-cleavage was 1.04.
For GUUAACGGUCAUAGGCCAUGGGAACUAGGAGCACCAUUUCGCUGCCAGCGAAGAAAUGAACAAAGAAAAUCUGGGCCAGGCAGGCAUCAAAAGAAAUAGUCAUGCGCUCAACCAGAAAGUCUGUAAUCAUUUUAAGGGUA [A22G U49C U102A] the value was 0.5; for GUUAACGGUCAUAGGCCAUGGGAACUAGGAGCACCAUUUCGCUGCCAGUGAAGAAAUGAACAAAGAAAAUCUGGGCCAGGCAGGCAUCAAAAGAAAUAGUCUCGCGCUCAACCAGAAAGUCUGUAAUCAUUUUAAAGGUA [A22G U103C G136A], 0.76; for GUUAACGGUCAUAGGCCAUGGGAACUAGGAGCACCAUUCCGCUGCCAGUGAAGAAAUGAACAAAGAAAAUCCGGGCCAGGCAGGCAUCAAAAGAAAUAGUCUUGAGCUCAACCAGAACGUCUGUAAUCAUUUUAAGGGUA [A22G U39C U72C C105A A118C], 0.01.
As for GUUAACGGUCAUAGGCCAUGGGAACUAGGAGCACCAUUUCGCUGCCAGCGAAGAAAUGAACAAAGAAAAUCUGGGCCAGGCAGGCAUCAGAAGAAAUAGUCUUGCGCUCAACCAGAAAGUCCGUAAUCAUUUUAAGGGUA [A22G U49C A90G U122C], the self-cleavage is 0.69.
For GUUAACGGUCAUAGGCCAUGGGAACUAGGAGCACCAUUCCGCUGCCAGUGAAGAAGUGAACAAAGAAAGUCUGGGCCAGGCAGGCAUCAAAAGAAAUAGUCUUGCGCUCAACCAGAAAGUCUGUAAUCAUUUUAAGGGUG [A22G U39C A56G A69G A140G] the value was 1.31; for GUUAACGGUCAUAGGCCAUGGGAACUAGGAGCACCAUUCCGCUGCCAGUGAAGAGAUGAACAAAGAAAAUCUGGGCCGGGCAGGCAUCAAAAGAAAUAGUCUUGCGCUCAACCAGAAAGUCUGUAGUCAUUUUAAGGGUA [A22G U39C A55G A78G A126G], 0.25.
As to GUUAACGGUCAUAGGCCAUGGGAACUAGGAGCACCAUUUCGCUGCCAGUGAAGAAAUGAACAAAGAAAAUCUGGGCCAGGCAGGCACCAAAAGGAAUAGUCUUGCGCUCAACCAGAAAGUCUGUAAUCAUUUUAAGGGUA [A22G U87C A94G], the self-cleavage was 1.38.
In the case of GUUAACGGUCAUAGGCCAUGGGAACUAGGAGCACCAUUUCGCUGCCAGCGAAGAAAUGAACAAAGAAAAUCUGGGCCAGGCAGGCAUCAAAAGAAAUAGUCUUGCGCUCAACCGGAAAGUCUGUAAUCAUUUUGAGGGUA [A22G U49C A114G A134G] it was 0.3; in that of GUUAACGGUCAUAGGCCAUGGGAACUAGGAGCACCAUUCCGCUGCCAGAGAAGAAAUGAACAAAGAAAAUCUGGGCCAGGCAGGCAUCAAAAGAAAUGGUCUUGCGCUCAACCAGAAAGUCUGUAAUCAUUUUAAGGGUA [A22G U39C U49A A98G], 0.97.
